{"source": "PubChem BioAssay AID1346428", "about": "(National Center for Advancing Translational Sciences (NCATS), 2018)", "note": "In all, about 48,000 compounds went through this assay and about 1,200 (2.5%) were called active. About 2% were inconclusive and are not listed.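 How the source made its calls: active means activation of at least 60% and not above a set upper limit (about 1 call in 100 departs from these limits); inconclusive means activation of 40% to 60%, or above that upper limit; inactive means activation under 40%.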 The list shows a part of the results."}
{"target": "Probable G-protein coupled receptor 32 (Homo sapiens) (UniProt O75388)", "sequence (O75388 whole entry, looked up)": "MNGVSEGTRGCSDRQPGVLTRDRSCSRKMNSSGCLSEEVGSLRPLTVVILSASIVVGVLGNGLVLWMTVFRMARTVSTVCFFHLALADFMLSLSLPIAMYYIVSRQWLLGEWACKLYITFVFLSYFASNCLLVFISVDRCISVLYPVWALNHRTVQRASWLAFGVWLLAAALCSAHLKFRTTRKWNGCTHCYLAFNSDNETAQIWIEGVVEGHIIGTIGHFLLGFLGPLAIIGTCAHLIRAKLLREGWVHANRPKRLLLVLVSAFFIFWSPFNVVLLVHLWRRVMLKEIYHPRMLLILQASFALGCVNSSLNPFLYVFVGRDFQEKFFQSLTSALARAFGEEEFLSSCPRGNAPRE", "experiment": "qHTS for Agonists of Human Resolvin D1 Receptor DRV1; further: 0% is about no effect", "details": "CHO-K1 GPR32 beta-arrestin PathHunter luminescence, 90 min; at 76.9 µM; active compounds read high; zero percent set by DMSO-only wells", "summary_of_the_method": "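Readings come from a cell-based beta-arrestin complementation format: CHO-K1 GPR32 stable cells (2,500/well) treated 90 min with compounds, then beta-Gal substrate added for 1 h before chemiluminescence imaging.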"}
{"compound": "CCc1ccc(CSc2nc(-c3ccc(OC)cc3)nc3c2Cc2c(CO)cnc(C)c2O3)cc1", "activation": "inactive: 17.4%"}
{"compound": "O=S(=O)(NCc1ccccc1)c1ccc(-c2cnc(C3CC3)o2)cc1", "activation": "inactive: 7.98%"}
{"compound": "CCOC(=O)c1sc(NC(=O)c2nc3ncccn3n2)c(C(=O)OC)c1C", "activation": "inactive: -10.7%"}
{"compound": "COc1ccccc1CNC(=O)CN1C(=O)CSc2ccc(S(=O)(=O)N(C)C)cc21", "activation": "inactive: 21.2%"}
{"compound": "CCOC(=O)c1c(C)[nH]c(CCC(=O)NCCCN2CCN(c3cc(C)ccc3C)CC2)c1C", "activation": "inactive: 5.11%"}
{"compound": "O=C(CCNS(=O)(=O)c1ccc2c(c1)CCN2C(=O)C1CC1)N1CCN(c2ccccc2F)CC1", "activation": "active: 70.6%"}
{"compound": "CCOc1ccc(S(=O)(=O)N2CCN(c3ccc(Cl)c(Cl)c3)CC2)c2ccccc12", "activation": "inactive: -0.707%"}
{"compound": "CCn1nc(-c2ccccc2)c(-c2ccccc2)c(C(=O)Nc2nc(C)c(C(=O)N(C)C)s2)c1=O", "activation": "inactive: -5.86%"}
{"compound": "CC(=O)OC(COc1ccccc1)Cn1cnc2cc(C)c(C)cc21", "note": "(configuration not stated)", "activation": "inactive: -12.1%"}
{"compound": "COc1ccc(NC(=O)CC2C(=O)N(c3ccc(C)cc3)C(=O)N2C2CCCCC2)cc1", "note": "(configuration not stated)", "activation": "inactive: -0.596%"}
{"compound": "O=C(CCSCc1ccccc1Cl)N1CCN(c2cccc(Cl)c2)CC1", "activation": "inactive: -27%"}
{"compound": "CCCn1c(CCC(=O)Nc2cc(Cl)c(OC)cc2OC)nc2cccnc21", "activation": "inactive: -8.11%"}
{"compound": "Cc1ccc(C)c(NC(=O)CSc2ncc3c(n2)-c2ccc(Cl)cc2N(C)S3(=O)=O)c1", "activation": "inactive: -13.6%"}
{"compound": "O=C(Cn1c(=O)n(-c2ccccc2Cl)c(=O)c2sc3ccccc3c21)N1CCCC1", "activation": "inactive: 7.5%"}
{"compound": "CCOc1ccc(CNC(=O)c2cnc3sc(N(CC)CC)nn3c2=O)cc1OC", "activation": "inactive: -11.6%"}
{"compound": "CCc1nc2cccnc2n1-c1ccc(CC(=O)Nc2ccc(C)cc2)cc1", "activation": "inactive: 1.06%"}
{"compound": "O=C(O)C1CCC1", "activation": "inactive: -27.5%"}
{"compound": "Nc1cccc2c1CN(C1CCC(=O)NC1=O)C2=O", "note": "(configuration not stated)", "activation": "inactive: 4.82%"}
{"compound": "Cc1ccc(NC(=O)CSc2nc3nccnc3c(=O)n2CCc2c[nH]c3ccccc23)cc1", "activation": "inactive: 7.21%"}
{"compound": "CC(C)N(Cc1ccccc1)C(=O)CN1C(=O)COc2ccc(S(=O)(=O)NC3CCCC3)cc21", "activation": "inactive: -39%"}
{"compound": "Cc1cc(C)cc(NC(=O)CCc2nnc3n(CC(C)C)c(=O)c4ccccc4n23)c1", "activation": "inactive: 17.5%"}
{"compound": "COc1ccc(-n2ccn(Cc3ccccc3Cl)c(=O)c2=O)cc1OC", "activation": "inactive: -21.1%"}
{"compound": "CCN(C(=O)CSc1nc2ccccc2n1CC(=O)Nc1ccccc1C)c1ccccc1", "activation": "inactive: 1.34%"}
{"compound": "COc1cc(CNc2ccc3[nH]c(=O)[nH]c3c2)ccc1OCc1ccccc1F", "activation": "inactive: 9.08%"}
{"compound": "CCOC(=O)c1ccc(OCCN2C[C@H](O)[C@@H](O)[C@H](O)[C@H]2CO)cc1", "activation": "inactive: -16.4%"}
{"compound": "COc1ccc(Cl)cc1NC(=O)CSc1ccc(-c2sc(C)nc2C)nn1", "activation": "inactive: -0.802%"}
{"compound": "CC(C)Cc1nn2c(=O)cc(COC(=O)c3ccc4c(c3)OCO4)nc2s1", "activation": "inactive: 8.23%"}
{"compound": "CN(C)c1ccc(C(CNS(=O)(=O)c2ccc(Br)cc2)N2CCCC2)cc1", "note": "(configuration not stated)", "activation": "inactive: -6.11%"}
{"compound": "CCN(CC)S(=O)(=O)c1ccc(NC(=O)CCc2c(C)nc3cc(-c4ccc(Cl)cc4)nn3c2C)cc1", "activation": "inactive: -5.71%"}
{"compound": "CCOC(=O)c1cc2c(=O)n3ccccc3nc2n(CCCOC)c1=NC(=O)C(C)(C)Oc1ccc(Cl)cc1", "activation": "inactive: -8.76%"}
{"compound": "Cc1ccc(OCc2nc(-c3ccc(C(=O)N4CCN(c5ccc(Cl)cc5)CC4)cc3)oc2C)cc1", "activation": "inactive: -25%"}
{"compound": "Cc1nn(Cc2ccc(Cl)cc2)c(C)c1NC(=O)c1noc2c1CCc1ccccc1-2", "activation": "active: 107%"}
{"compound": "Cc1cccc(-c2nc(SCC(=O)Nc3cccc(C(F)(F)F)c3)n3[nH]c(=O)cc3n2)c1", "activation": "inactive: -23.6%"}
{"compound": "CCOc1ccc(CNC(=O)C2CCCN(S(=O)(=O)c3ccc4c(c3)CCCC(=O)N4)C2)cc1", "note": "(configuration not stated)", "activation": "inactive: 16.1%"}
{"compound": "CC(C)CCNC(=O)CSc1c2c(nc3ccc(Cl)cc13)CCCC2", "activation": "inactive: -19.3%"}
{"compound": "CC(C)Oc1ccc(CNC(=O)Cn2c(=O)oc3ccccc32)cc1", "activation": "inactive: 37.8%"}
{"compound": "CCOC(=O)C1=C(CN2CCN(CC)CC2)NC(=O)NC1c1ccc(Cl)cc1", "note": "(configuration not stated)", "activation": "inactive: 8.2%"}
{"compound": "Cc1cc(C(=O)NCc2ccccc2C)c2c(C)nn(-c3cccc(F)c3)c2n1", "activation": "inactive: -12.5%"}
{"compound": "CCCCCCn1c(CNC(=O)c2ccccc2)nc2ccccc21", "activation": "inactive: -6.19%"}
{"compound": "O=C(CC1N=C2c3ccccc3N=C(SCc3ccc(F)cc3)N2C1=O)NCc1cccs1", "note": "(configuration not stated)", "activation": "inactive: -15.1%"}
{"compound": "COc1ccc2c(c1)CCc1c(C(=O)Nc3ccccc3C(F)(F)F)noc1-2", "activation": "inactive: 3.88%"}
{"compound": "CCc1ccc(NC(=O)Cn2ncc3c4ccccc4n(C)c3c2=O)cc1", "activation": "inactive: -14.5%"}
{"compound": "COc1cccc(CNC(=O)Cn2cc3c(n2)-c2c(oc(C(=O)N4CCCC4)c2C)CC3)c1", "activation": "inactive: 0.387%"}
{"compound": "CCOC(=O)c1scc(-c2ccc(C)cc2)c1S(=O)(=O)Nc1cc(Cl)ccc1OC", "activation": "inactive: -4.68%"}
{"compound": "CCCCn1cc(S(=O)(=O)c2ccc(OC)cc2)c(=O)c2cc(F)c(F)cc21", "activation": "inactive: -18.2%"}
{"compound": "CCc1ccc(NC(=O)CSc2nc(-c3ccccc3)c(C#N)c(=O)[nH]2)cc1", "activation": "inactive: 12%"}
{"compound": "COC(=O)Cn1c(CN2CCN(c3ccc(OC)cc3)CC2)nc2c1c(=O)[nH]c(=O)n2C", "activation": "inactive: -5.41%"}
{"compound": "CCOC(=O)c1c(S(=O)(=O)NCC(=O)Nc2cccc(CC)c2)c(C)n(C)c1C", "activation": "inactive: -13.1%"}
{"compound": "CCOc1ccc(NC(=O)c2cc(S(=O)(=O)NC3CCCC3)ccc2F)cc1", "activation": "inactive: -19.2%"}
{"compound": "O=C(c1ccc(Cl)cc1)N1CCN(c2ccc([N+](=O)[O-])c3ncccc23)CC1", "activation": "inactive: 9.51%"}
{"compound": "Clc1cccc(-c2csc(-c3nc(-c4ccc(Br)s4)cs3)n2)c1", "activation": "inactive: 15.9%"}
{"compound": "CCN(CC)C(=O)c1sc2c(c1C)c(=O)n(-c1ccccc1)c(=O)n2Cc1cc(=O)n2ccccc2n1", "activation": "inactive: -0.396%"}
{"compound": "O=C(CCNS(=O)(=O)c1ccc2c(c1)CCN2C(=O)C1CC1)N1CCN(c2ccc(F)cc2)CC1", "activation": "active: 69.2%"}
{"compound": "CCN1C(C(=O)c2ccccc2)=C(OC(=O)C(C)C)c2ccccc2S1(=O)=O", "activation": "inactive: -42.4%"}
{"compound": "COc1ccc(S(=O)(=O)c2cn(Cc3ccccc3)c3cc(N4CCCC4)c(F)cc3c2=O)cc1", "activation": "inactive: -21.2%"}
{"compound": "CCCOc1cccc(C(=O)Nc2ccc(-c3nc4ccccc4s3)c(Cl)c2)c1", "activation": "inactive: -16.8%"}
{"compound": "COc1ccc(CCNC(=O)CCCCn2c(=O)c3ccccc3n(CC(=O)Nc3ccccc3C)c2=O)cc1OC", "activation": "inactive: -26.4%"}
{"compound": "COc1ccc(CCNC(=O)CCn2c(=O)c3ccccc3n(Cc3ccc(Cl)cc3)c2=O)cc1OC", "activation": "inactive: -5.5%"}
{"compound": "CCc1ccccc1NC(=O)Cn1c(=O)nc(-c2ccccc2)c2ccccc21", "activation": "inactive: -4.04%"}
{"compound": "CCOC(=O)c1c(C)[nH]c(C)c1S(=O)(=O)N1CCC(C(=O)NCc2ccc(C)cc2)CC1", "activation": "inactive: 17.4%"}
{"compound": "C=C(C)CSc1nc2sc3c(c2c(=O)n1CCCC)CCCC3", "activation": "inactive: 29.8%"}
{"compound": "CCn1c2c(c(=O)n3ncc(C(=O)Nc4cccc(Cl)c4C)c13)CN(Cc1ccc(OC)cc1)CC2", "activation": "inactive: -17.5%"}
{"compound": "COc1ccc(CNC(=O)C2CCN(c3nc4ccc(C)cc4[nH]3)CC2)cc1", "activation": "inactive: -5.56%"}
{"compound": "Cc1cc(C)cc(NC(=O)CSc2nncn3c2cc2occc23)c1", "activation": "inactive: -19.1%"}
{"compound": "O=C(Nc1ccc(N2CCN(CCOc3ccc(Cl)cc3)CC2)c(C(=O)O)c1)c1ccc(F)cc1", "activation": "inactive: -5.47%"}
{"compound": "CCCn1c(SCC(O)c2cccc(OC)c2)nc2ccccc21", "note": "(configuration not stated)", "activation": "inactive: -15.8%"}
{"compound": "Cc1ccc(C)c(CN2CCCN(Cc3cc(C)ccc3C)S2(=O)=O)c1", "activation": "inactive: -12.3%"}
{"compound": "COc1ccccc1C(=O)NC1(C(F)(F)F)C(=O)Nc2c1c(=O)[nH]c(=O)n2CCc1ccccc1", "note": "(configuration not stated)", "activation": "inactive: 21.2%"}
{"compound": "COc1ccc(CNC(=O)c2nnn(CC(=O)Nc3cc(C)cc(C)c3)c2N)cc1", "activation": "inactive: -0.68%"}
{"compound": "CCc1nc2ccccc2n1CCCCOc1ccccc1C", "activation": "inactive: 18.4%"}
{"compound": "Cc1cnc(NS(=O)(=O)c2ccc(N)cc2)nc1", "activation": "inactive: -5.34%"}
{"compound": "COC(=O)c1ccc(-n2c(/C=C\\c3cccc(Br)c3)nc3ccccc3c2=O)cc1", "activation": "inactive: -11.9%"}
{"compound": "Cc1ccc(S(=O)(=O)C(CNC(=O)C(=O)NCCc2ccccc2)c2ccco2)cc1", "note": "(configuration not stated)", "activation": "inactive: -10.5%"}
{"compound": "Cc1ccccc1CCNC(=O)C1CCN(c2nc3ccccc3nc2C(F)(F)F)CC1", "activation": "inactive: 1.25%"}
{"compound": "COc1cc(CN(C(=O)c2cccc(C)c2)c2ccccn2)cc(OC)c1OC", "activation": "inactive: -0.6%"}
{"compound": "Cc1ccc(-n2c(SCC(=O)NCc3ccccc3)nc3c([nH]c4ccccc43)c2=O)cc1", "activation": "inactive: -16%"}
{"compound": "CCOc1ccc(C(=O)NCCn2cc(SCC(=O)Nc3ccccc3)c3ccccc32)cc1", "activation": "inactive: 12.7%"}
{"compound": "COC(=O)c1cc(NC(=O)c2sc3ncn(Cc4cccc(F)c4)c(=O)c3c2C)cc(C(=O)OC)c1", "activation": "inactive: 6.12%"}
{"compound": "COc1ccccc1NC(=O)CCS(=O)(=O)c1cc2c3c(c1)CCN3C(=O)CC2", "activation": "inactive: -13.2%"}
{"compound": "CCC1CCCCN1C(=O)c1nn(-c2ccc(OC)cc2)c(=O)c2c1c1ccccc1n2C", "note": "(configuration not stated)", "activation": "inactive: 4.21%"}
{"compound": "O=C(NCc1ccccc1Cl)c1cc(=O)[nH]c2ccc(S(=O)(=O)N3CCCCC3)cc12", "activation": "inactive: 10.8%"}
{"compound": "COc1ccccc1CNC(=O)Cn1c(=O)oc2cc(S(=O)(=O)NCc3ccccc3)ccc21", "activation": "inactive: -0.597%"}
